Measurements taken from PubChem BioAssay AID651820 (National Center for Advancing Translational Sciences (NCATS), 2012).
The whole screen tested about 340,000 compounds, of which about 12,000 (3.5%) were called active. Inconclusive means that the source gave no clear call. Such entries were picked first, then a sample of the others. Calls follow the shape of the dose curve; as a rule, active = well fitted inhibition curve with a large enough effect; inconclusive = small, poorly fitted or top-dose-only effect, or another doubt; inactive = no such curve, though single readings can be large or run the other way. No potency is given beside an inconclusive call; the fits are too rough. Non-standard residues stand in square brackets, D forms with d. Residues, ends and D or L forms follow the SMILES beside them. ξ: configuration not given here. *: point of attachment. Tos = Cc1ccc(S(=O)(=O)*)cc1; Inp = O=C(O)C1CCNCC1; ξP = O=C(O)C1CCCN1

Test: qHTS Assay for Inhibitors of Hepatitis C Virus (HCV)
Details: Huh7.5.1 HCVcc-Cre (HCVcc is cell-culture hepatitis C virus) infection, luciferase reporter, 44 h; activity change, negative = inhibition: at 41.8 µM (top of the series) unless noted
Procedure, shortened: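 Infectious HCVcc-Cre (~0.5 moi) was added to cells just after compound, with cells seeded 4 h earlier at 1,000 per well. Luciferase activity after 44 h culture reported infection; substrate was incubated 15 min at room temperature before reading.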
% is scaled to controls: 0 for no effect and ±100 for the full control effect; potency is read from the fitted curve at half-maximal effect; tags tell the direction and shape of the fitted curve.

Compound | Potency | activity change, negative = inhibition
COc1ccc(C(C(=O)NC2CCCC2)N(C(=O)c2snc(-c3ccc(F)cc3)c2N)c2ccccc2)cc1 (configuration not stated) | inactive | 
O=C(COC(=O)C12CC3CC(CC(Br)(C3)C1)C2)N1CCOCC1 | inactive | 
COc1cc(OC)c(C(=O)OCCCOC(=O)c2cc(OC)c(OC)cc2OC)cc1OC | inconclusive [inhibitor, single point] | 
Cc1ccccc1N1C(=O)C(Cl)=C(N2CCN(c3ccccc3)CC2)C1=O | inactive | 
CC12CC3CC(C)(C1)CC(C(=O)NC1=NCCS1)(C3)C2 | inactive | 
O=C(Cc1c[nH]c2ccccc12)Nc1nnc(C2CC2)s1 | inactive | 
O=[N+]([O-])c1ccc2nc(-c3cccnc3)[nH]c2c1 | inactive | 
CCN(CC)S(=O)(=O)c1ccc(N2CC(C(=O)NCCC3=CCCCC3)CC2=O)cc1 (configuration not stated) | inconclusive [inhibitor, partial curve] | 
Cc1c(Cl)cccc1NC(=O)Cn1cc(C(F)(F)F)cc(Cl)c1=O | inactive | 
COc1ccccc1-c1cc(C(=O)N/N=C/c2ccc(C)s2)c2ccccc2n1 | inconclusive [inhibitor, single point] | 
O=C(CSc1ccccn1)Nc1nonc1[N+](=O)[O-] | inactive | 
Cc1ccc(-c2cc(C(F)F)nc(NCC3CCCO3)n2)cc1 (configuration not stated) | active: 3.98 µM | 
CCCCCCSc1ccc(-c2nc3ccccn3c2NCCCC)cc1 | inconclusive [inhibitor, partial curve] | 
CC1(C)CC(=O)C2=C(C1)N(c1ccccc1)C(=O)C2(O)C(F)(F)F (configuration not stated) | inactive | 
COc1ccc(CCN2CN(S(=O)(=O)c3ccccc3)c3nc4ccccc4nc32)cc1 | inactive | 
CCOc1ccc(Oc2ccc(Cl)cc2N)cc1 | inconclusive [inhibitor, single point] | 
COc1ccc(NC(=O)CN(C)C(=O)c2cccc(S(=O)(=O)Nc3ccc(F)cc3)c2)cc1 | inconclusive [inhibitor, partial curve] | 
Cc1cc(C(=O)c2ccccc2)c(NC(=O)CN2CCOCC2)s1 | inactive | 
OCCN1CCN(Cc2cc(Cl)c3cccnc3c2O)CC1 | inconclusive [inhibitor, single point] | 
CCOC(=O)/C(C#N)=C/c1c(N2CCN(c3ccccc3)CC2)nc2c(C)cccn2c1=O | inconclusive [inhibitor, partial curve] | 
OC1CCN(c2c3c(nc4cc(-c5ccc(Cl)cc5)nn24)CCC3)CC1 | inconclusive [inhibitor, partial curve] | 
COc1ccc(-c2nc3c(c(=O)c4ccccc4n3C)c(=O)n2Cc2ccccc2)cc1 | inconclusive [inhibitor, single point] | 
CC(=O)Nc1ccc(S(=O)(=O)N2CCC3(CC2)OCCO3)cc1 | inactive | 
O=C(NCc1ccccc1)c1ccc(CS(=O)(=O)c2ccccc2)o1 | inactive | 

Compound | Potency | activity change, negative = inhibition
Cc1ccc2nc(-c3ccccc3)oc(=O)c2c1 | inactive | 
COc1cccc(NC(=O)CNC(=O)c2ccc(C)cc2)c1 | inactive | 
Cc1ccc2cc(C#N)c(N3CCCN(C(=O)c4cnccn4)CC3)nc2c1 | inactive | 
O=C(NC(=S)Nc1ccccc1N1CCCCC1)c1ccc(-c2cccc([N+](=O)[O-])c2)o1 | inconclusive [inhibitor, full curve] | 
S=c1[nH]cc(Oc2ccc(Cl)cc2Cl)c(=S)[nH]1 | inactive | 
Oc1ccc(C2C(c3ccccc3)=NN=C(c3ccccc3F)N2O)c(O)c1 (configuration not stated) | inactive | 
CCN(CC)CCN(C(=O)CCS(=O)(=O)c1ccccc1)c1nc2cc(C)cc(C)c2s1 | inactive | 
Cc1cccc(NS(=O)(=O)c2cccc(C(=O)NCC(c3ccco3)N3CCCCC3)c2)c1 (configuration not stated) | inconclusive [inhibitor, single point] | 
Brc1ccccc1-c1nnc(SCc2nc3ccccc3s2)o1 | inconclusive [inhibitor, single point] | 
O=c1[nH]c(=S)[nH]c(O)c1N=Nc1ccc(S(=O)(=O)N2CCc3ccccc32)cc1 |  | inconclusive: -59.5% [inhibitor]
Cc1ccc(C)c(OCc2cc(C(=O)N(C)Cc3ccccn3)no2)c1 | inactive | 
NS(=O)(=O)c1ccc(Nc2nc(-c3ccc(O)cc3)cs2)cc1 | inconclusive [inhibitor, single point] | 
COc1cc(C(=O)NC2(C(F)(F)F)NC(=O)N(CCCc3ccccc3)C2=O)cc(OC)c1OC (configuration not stated) | inconclusive [inhibitor, single point] | 
CCc1ccc(NC(=O)C2CCN(S(=O)(=O)c3ccc4c(c3)NC(=O)C(C)S4)CC2)cc1 (configuration not stated) | active: 8.91 µM | 
COc1ccc(O)c(C(=O)c2cnc3c(c2)c(-c2ccc(F)cc2)c(C#N)c(=O)n3C)c1 | inconclusive [inhibitor, partial curve] | 
Cc1cc(C(=O)Nc2sc3c(c2C#N)CCCC3)no1 | inconclusive [inhibitor, partial curve] | 
COc1cc(C(=O)OCC(=O)Nc2ccc(C)cc2)cc(OC)c1OC | inconclusive [inhibitor, single point] | 
COc1ccc(CN2CCN(S(=O)(=O)c3ccc(NC(C)=O)cc3)CC2)c(OC)c1OC | inactive | 
CN(CC(=O)Nc1ccc(F)cc1)CC(=O)Nc1ccc(Cl)c(S(=O)(=O)N2CCOCC2)c1 | inconclusive [inhibitor, single point] | 
O=C(Nc1cccnc1)c1cn(-c2ccccc2)nc1-c1cccs1 | inconclusive [inhibitor, single point] | 
CCC(C)c1ccc(S(=O)(=O)N2CCN(C(=O)c3ccc(Cl)c(S(=O)(=O)N4CCOCC4)c3)CC2)cc1 (configuration not stated) | inconclusive [inhibitor, partial curve] | 
Cc1ccc(S(=O)(=O)N2CCC(C(=O)N3CCCC3C(=O)N[C@@H](CC(C)C)C(=O)NCC(N)=O)CC2)cc1 (stereo partly drawn) ({Tos-Inp}-[ξP]-Leu-Gly-NH2) | active: 1 µM | 
CN1CCc2nc3sc(C#N)c(N)c3c(-c3cccs3)c2C1 | inconclusive [inhibitor, full curve] | 
